Measurements published in ChEMBL document CHEMBL5634115, “Exploring novel anticancer pyrazole benzenesulfonamides featuring tail approach strategy as carbonic anhydrase inhibitors” (Eur J Med Chem, 2023).

Assays:
Test in all cases: cells
K562 [1] = conditions: Homo sapiens, K562, 48 h
COLO 205 [2] = conditions: Homo sapiens, COLO 205, 48 h, read-out: LC50
SK-MEL-5 = assay type: functional; conditions: Homo sapiens, time 48 hrs
KM12 = assay type: functional; conditions: Homo sapiens, time 48 hrs
IGROV-1 [3] = assay type: functional; conditions: Homo sapiens, time 48 hrs
MCF7 [4] = assay type: functional; conditions: Homo sapiens, time 48 hrs
MDA-MB-435 [5] = conditions: Homo sapiens, MDA-MB-435, 48 h, read-out: LC50
NCI/ADR-RES [6] = assay type: functional; conditions: Homo sapiens, time 48 hrs
SF-268 = conditions: Homo sapiens, SF-268, 48 h, read-out: LC50
MDA-MB-435 [7] = assay type: functional; conditions: Homo sapiens, time 48 hrs
NCI-H322M [8] = assay type: functional; conditions: Homo sapiens, time 48 hrs
786-0 = assay type: functional; conditions: Homo sapiens, time 48 hrs
OVCAR-8 = conditions: Homo sapiens, OVCAR-8, 48 h, read-out: LC50
OVCAR-3 [9] = conditions: Homo sapiens, OVCAR-3, 48 h, read-out: LC50
IGROV-1 [10] = assay type: functional; conditions: Homo sapiens, time 48 hrs; remark: listed apart in the source
NCI-H460 = assay type: functional; conditions: Homo sapiens, time 48 hrs
U-251 [11] = assay type: functional; conditions: Homo sapiens, time 48 hrs
HOP-62 [12] = conditions: Homo sapiens, HOP-62, 48 h, read-out: LC50
OVCAR-3 [13] = assay type: functional; conditions: Homo sapiens, time 48 hrs
IGROV-1 [14] = conditions: Homo sapiens, IGROV-1, 48 h, read-out: LC50
UACC-62 = assay type: functional; conditions: Homo sapiens, time 48 hrs
HOP-62 [15] = assay type: functional; conditions: Homo sapiens, time 48 hrs
HOP-62 [16] = assay type: functional; conditions: Homo sapiens, time 48 hrs; remark: listed apart in the source
TK-10 = assay type: functional; conditions: Homo sapiens, time 48 hrs
SW-620 [17] = conditions: Homo sapiens, SW-620, 48 h, read-out: LC50
SK-MEL-2 = assay type: functional; conditions: Homo sapiens, time 48 hrs
K562 [18] = assay type: functional; conditions: Homo sapiens, time 48 hrs
OVCAR-4 [19] = assay type: functional; conditions: Homo sapiens, time 48 hrs
MCF7 [20] = assay type: functional; conditions: Homo sapiens, time 48 hrs; remark: listed apart in the source
OVCAR-5 = conditions: Homo sapiens, OVCAR-5, 48 h, read-out: LC50
HL-60(TB) = conditions: Homo sapiens, HL-60, 48 h, read-out: LC50
SN12C = assay type: functional; conditions: Homo sapiens, time 48 hrs
BT-549 [21] = conditions: Homo sapiens, BT-549, 48 h, read-out: LC50
MDA-MB-468 = conditions: Homo sapiens, MDA-MB-468, 48 h, read-out: LC50
COLO 205 [22] = assay type: functional; conditions: Homo sapiens, time 48 hrs
HCT-15 = assay type: functional; conditions: Homo sapiens, time 48 hrs
OVCAR-4 [23] = assay type: functional; conditions: Homo sapiens, time 48 hrs; remark: listed apart in the source
MOLT-4 = assay type: functional; conditions: Homo sapiens, time 48 hrs
T47D [24] = conditions: Homo sapiens, 48 h, read-out: LC50
MCF7 [25] = conditions: Homo sapiens, MCF7, 48 h, read-out: LC50
NCI/ADR-RES [26] = conditions: Homo sapiens, 48 h, read-out: LC50
A549 = assay type: functional; conditions: Homo sapiens, time 48 hrs
SNB-19 = assay type: functional; conditions: Homo sapiens, time 48 hrs
SK-MEL-28 = conditions: Homo sapiens, SK-MEL-28, 48 h, read-out: LC50
Malme-3M [27] = assay type: functional; conditions: Homo sapiens, time 48 hrs
U-251 [28] = assay type: functional; conditions: Homo sapiens, time 48 hrs; remark: listed apart in the source
HCC 2998 = assay type: functional; conditions: Homo sapiens, time 48 hrs
HT-29 = conditions: Homo sapiens, HT-29, 48 h, read-out: LC50
SR [29] = conditions: Homo sapiens, 48 h, read-out: LC50
NCI-H322M [30] = assay type: functional; conditions: Homo sapiens, time 48 hrs; remark: listed apart in the source
Malme-3M [31] = assay type: functional; conditions: Homo sapiens, time 48 hrs; remark: listed apart in the source
SF-539 = assay type: functional; conditions: Homo sapiens, time 48 hrs
SW-620 [32] = assay type: functional; conditions: Homo sapiens, time 48 hrs
BT-549 [33] = assay type: functional; conditions: Homo sapiens, time 48 hrs
Hs-578T = assay type: functional; conditions: Homo sapiens, time 48 hrs
SR [34] = assay type: functional; conditions: Homo sapiens, time 48 hrs
SF-295 = assay type: functional; conditions: Homo sapiens, time 48 hrs
RPMI-8226 = assay type: functional; conditions: Homo sapiens, time 48 hrs
T47D [35] = assay type: functional; conditions: Homo sapiens, time 48 hrs
M14 = assay type: functional; conditions: Homo sapiens, time 48 hrs
UACC-257 = assay type: functional; conditions: Homo sapiens, time 48 hrs
MDA-MB-231 = assay type: functional; conditions: Homo sapiens, time 48 hrs
PC-3 = assay type: functional; conditions: Homo sapiens, time 48 hrs

## NS(=O)(=O)c1ccc(-n2cc(/C=N/Nc3ccc(C(=O)O)cc3)c(-c3ccccc3)n2)cc1
K562 [1]
  TGI: > 100 µM
COLO 205 [2]
  CC50: > 100 µM
SK-MEL-5
  TGI: 4.07 µM
KM12
  TGI: 3.75 µM
IGROV-1 [3]
  GI50: 5.06 µM
MCF7 [4]
  TGI: 4.93 µM
MDA-MB-435 [5]
  CC50: 17.9 µM
NCI/ADR-RES [6]
  GI50: 2.44 µM
SF-268
  CC50: > 100 µM
MDA-MB-435 [7]
  TGI: 5.05 µM
NCI-H322M [8]
  TGI: 36.6 µM
786-0
  GI50: 2.69 µM
OVCAR-8
  CC50: > 100 µM
OVCAR-3 [9]
  CC50: 23.8 µM
IGROV-1 [10]
  TGI: 21.3 µM
NCI-H460
  GI50: 2.46 µM
U-251 [11]
  GI50: 3.55 µM
HOP-62 [12]
  CC50: > 100 µM
OVCAR-3 [13]
  TGI: 4.73 µM
IGROV-1 [14]
  CC50: 79.4 µM
UACC-62
  GI50: 4.99 µM
HOP-62 [15]
  TGI: 30 µM
HOP-62 [16]
  GI50: 5.75 µM
TK-10
  GI50: 18.5 µM
SW-620 [17]
  CC50: 68.4 µM
SK-MEL-2
  GI50: 3.06 µM
K562 [18]
  GI50: 2.96 µM
OVCAR-4 [19]
  GI50: 7.35 µM
MCF7 [20]
  GI50: 2.1 µM
OVCAR-5
  CC50: 56.5 µM
HL-60(TB)
  CC50: > 100 µM
SN12C
  TGI: 45.6 µM
BT-549 [21]
  CC50: 73.8 µM
MDA-MB-468
  CC50: 48.5 µM
COLO 205 [22]
  GI50: 11.5 µM
HCT-15
  TGI: 3.82 µM
OVCAR-4 [23]
  TGI: 47.2 µM
MOLT-4
  GI50: 2.5 µM
T47D [24]
  CC50: > 100 µM
MCF7 [25]
  CC50: > 100 µM
NCI/ADR-RES [26]
  CC50: > 100 µM
A549
  GI50: 3.79 µM
SNB-19
  TGI: 18.8 µM
SK-MEL-28
  CC50: 49.1 µM
Malme-3M [27]
  GI50: 4.18 µM
U-251 [28]
  TGI: 20.6 µM
HCC 2998
  TGI: 4.53 µM
HT-29
  CC50: 53.2 µM
SR [29]
  CC50: > 100 µM
NCI-H322M [30]
  GI50: 4.31 µM
Malme-3M [31]
  TGI: 16.2 µM
SF-539
  TGI: 4.01 µM
SW-620 [32]
  TGI: 10.7 µM
BT-549 [33]
  GI50: 6.39 µM
Hs-578T
  GI50: 2.68 µM
SR [34]
  TGI: 7.31 µM
SF-295
  GI50: 3.37 µM
RPMI-8226
  GI50: 3.24 µM
T47D [35]
  GI50: 5.99 µM
M14
  GI50: 2.14 µM
UACC-257
  GI50: 14.1 µM
MDA-MB-231
  GI50: 3.2 µM
PC-3
  GI50: 3.49 µM
